Results taken from the supplement of paper PMC4967469.
The IC50 comes from the fitted curve, where viability falls to half of the control; fits outside the tested doses are given as limits. AUC sums up the same curve from the lowest dose to the 256-fold higher top dose; the more sensitive the line, the further below 1. An inferred top dose was derived from the fitted curves, not read from the paper.

Compound: CCc1nc(-c2cccc(C)c2)c(-c2ccnc(NC(=O)c3ccccc3)c2)s1 [TAK-715]
Test: Viability of human cancer cell lines after 72 h of drug (GDSC screen)
Conditions: top dose inferred
Procedure: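 Human cancer cell lines in 384-well plates, medium with 10% serum, drug for 72 h over a 256-fold dose range (nine 2-fold or five 4-fold steps up to the top dose). Adherent lines were fixed and stained with the nucleic acid dye Syto60, suspension lines read with resazurin; signal relative to control wells, capped at 0 and 100%. One two-parameter sigmoid per drug and line, fitted in a mixed model over all curves with the slope shared within a line.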

| Cell Line | AUC | IC50 |
| --- | --- | --- |
| MKN1 (stomach, adherent, top dose 20 µM) | 0.896 | > 20 µM |
| MKN28 (stomach, adherent, top dose 20 µM) | 0.943 | > 20 µM |
| MKN45 (stomach, adherent, top dose 20 µM) | 0.925 | > 20 µM |
| ML-1 (thyroid, adherent, top dose 20 µM) | 0.984 | > 20 µM |
| ML-2 (acute myeloid leukaemia, suspension, top dose 20 µM) | 0.898 | > 20 µM |
| MLMA (hairy cell leukaemia, semi-adherent, top dose 20 µM) | 0.901 | > 20 µM |
| MMAC-SF (melanoma, adherent, top dose 20 µM) | 0.976 | > 20 µM |
| MN-60 (B-cell leukaemia, suspension, top dose 20 µM) | 0.841 | 14.7 µM |
| MOG-G-CCM (glioma, adherent, top dose 20 µM) | 0.816 | 13.5 µM |
| MOG-G-UVW (glioma, adherent, top dose 20 µM) | 0.854 | 15.1 µM |
| MOLM-13 (acute myeloid leukaemia, suspension, top dose 20 µM) | 0.812 | 9.86 µM |
| MOLP-8 (myeloma, suspension, top dose 20 µM) | 0.672 | 3.69 µM |
| MOLT-4 (lymphoblastic leukaemia, suspension, top dose 20 µM) | 0.847 | 10.8 µM |
| MOLT-13 (T-cell lymphoblastic leukaemia, suspension, top dose 20 µM) | 0.869 | 14.8 µM |
| MONO-MAC-6 (acute myeloid leukaemia, suspension, top dose 20 µM) | 0.891 | > 20 µM |
| MPP-89 (mesothelioma, adherent, top dose 20 µM) | 0.977 | > 20 µM |
| MRK-nu-1 (breast, suspension, top dose 20 µM) | 0.99 | > 20 µM |

| Cell Line | AUC | IC50 |
| --- | --- | --- |
| MS751 (cervix, adherent, top dose 20 µM) | 0.956 | > 20 µM |
| MS-1 (small cell lung carcinoma, suspension, top dose 20 µM) | 0.918 | > 20 µM |
| MSTO-211H (mesothelioma, adherent, top dose 20 µM) | 0.976 | > 20 µM |
| MV-4-11 (leukaemia, suspension, top dose 20 µM) | 0.882 | 14.7 µM |
| MY-M12 (leukaemia, suspension, top dose 20 µM) | 0.863 | > 20 µM |
| MZ1-PC (pancreas, adherent, top dose 20 µM) | 0.923 | > 20 µM |
| MZ2-MEL (melanoma, adherent, top dose 20 µM) | 0.945 | > 20 µM |
| MZ7-mel (melanoma, adherent, top dose 20 µM) | 0.954 | > 20 µM |
| Mewo (melanoma, adherent, top dose 20 µM) | 0.978 | > 20 µM |
| Mo-T (hairy cell leukaemia, suspension, top dose 20 µM) | 0.87 | 19.4 µM |
| NALM-6 (B-cell leukaemia, suspension, top dose 20 µM) | 0.883 | 15.5 µM |
| NAMALWA (Burkitt lymphoma, suspension, top dose 20 µM) | 0.885 | 15.8 µM |
| NB5 (neuroblastoma, adherent, top dose 20 µM) | 0.98 | > 20 µM |
| NB6 (neuroblastoma, adherent, top dose 20 µM) | 0.977 | > 20 µM |
| NB7 (neuroblastoma, adherent, top dose 20 µM) | 0.875 | > 20 µM |
| NB10 (neuroblastoma, adherent, top dose 20 µM) | 0.931 | > 20 µM |
